Target: T1, Human IgG1 (Trastuzumab) (Homo sapiens, UniProt P01857)
T1 construct: purchased Chugai Pharmaceutical Co., Ltd
Assay: Labeling of antibody with SG-modified peptide reagent, confirmed by SDS-PAGE (modification efficiency)
Type: biochemical
Settings: Trastuzumab 10 μM, SG peptide 200 μM, acetate buffer pH 5.5, room temperature

T1 sequence (P01857 1-330 isoform P01857-1, other chains not shown): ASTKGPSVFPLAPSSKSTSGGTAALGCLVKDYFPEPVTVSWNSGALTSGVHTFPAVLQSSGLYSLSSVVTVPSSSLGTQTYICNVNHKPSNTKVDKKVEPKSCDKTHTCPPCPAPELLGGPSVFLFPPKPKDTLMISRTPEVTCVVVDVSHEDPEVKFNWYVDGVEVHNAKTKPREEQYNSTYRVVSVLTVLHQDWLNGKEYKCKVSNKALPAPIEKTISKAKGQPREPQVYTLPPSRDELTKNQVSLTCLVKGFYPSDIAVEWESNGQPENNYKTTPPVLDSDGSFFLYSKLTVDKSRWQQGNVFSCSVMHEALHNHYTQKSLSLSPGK

Sequence: FNMQQQRRFYEALHDPNLNEEQRNARIRSIRDD [Peptide Z33]
- IgG1 modification efficiency (yield) after 30 minutes: almost the same efficiency as αZ34C and εZ34C
